Test results from the antibiotic and cytotoxicity screens of Wong et al. (2023).
The other results are listed elsewhere or left out.

Assays:
HSkMC = human skeletal muscle cells; test: cytotoxicity call (relative viability < 0.9); details: 10 µM
S. aureus RN4220 = test: growth inhibition call (relative growth <= 0.2); details: 50 µM

SMILES | cytotoxicity call (HSkMC) | growth inhibition call (S. aureus RN4220)
CC(C)(Sc1cc(C(C)(C)C)c(O)c(C(C)(C)C)c1)Sc1cc(C(C)(C)C)c(O)c(C(C)(C)C)c1 | inactive | inactive
Cc1ccc(S(=O)(=O)Nc2cccc3c2O[C@@H](CN(C)C(=O)Nc2cccc4ccccc24)[C@@H](C)CN([C@@H](C)CO)C3=O)cc1 | inactive | inactive
CC(C)CC#Cc1ccc2c(c1)O[C@@H](CN(C)C(=O)C1CCOCC1)[C@@H](C)CN([C@@H](C)CO)S2(=O)=O | inactive | inactive
Cc1ccc(S(=O)(=O)Nc2ccc3c(c2)C(=O)N([C@H](C)CO)C[C@@H](C)[C@@H](CN(C)Cc2ccccc2)OCCCC[C@@H](C)O3)cc1 | inactive | inactive
CC(C)NC(=O)Nc1ccc2c(c1)CC(=O)N([C@H](C)CO)C[C@@H](C)[C@@H](CN(C)S(=O)(=O)c1ccccc1)O2 | inactive | inactive
C[C@@H]1CN([C@@H](C)CO)S(=O)(=O)c2ccc(C#Cc3cccc(F)c3)cc2O[C@@H]1CN(C)S(=O)(=O)c1ccccc1F | inactive | inactive
Cc1cc(-c2ccc3ccccc3n2)nc2ccc3ccccc3c12 | inactive | inactive
C[C@@H]1CCCCO[C@H](CN(C)C(=O)Nc2cccc3ccccc23)[C@H](C)CN([C@@H](C)CO)C(=O)c2cc(NC(=O)Cc3ccccc3)ccc2O1 | inactive | inactive
Nc1cc(=O)nc(C(F)(F)F)[nH]1 | inactive | inactive
C[C@H](CO)N1C[C@H](C)[C@H](CN(C)Cc2ccc(Oc3ccccc3)cc2)Oc2c(NC(=O)C3CCCCC3)cccc2C1=O | inactive | inactive
CO[C@H]1CN(C)C(=O)c2cc(NC(=O)Nc3cccc(Cl)c3)ccc2OC[C@@H](C)N(C(=O)Nc2c(C)noc2C)C[C@@H]1C | inactive | inactive
COCCN1C[C@H]2CN(Cc3nccn3C)C[C@H]2C1=O | inactive | inactive
COc1ccccc1N1CCN(c2ncc(C(=O)N3CCN(c4cccc(Cl)c4)CC3)c3ccccc23)CC1 | inactive | inactive
C[C@@H]1CCCCO[C@@H](CN(C)Cc2ccncc2)[C@@H](C)CN([C@H](C)CO)C(=O)c2cc(NC(=O)C3CCCCC3)ccc2O1 | inactive | inactive
C[C@H](CO)N1C[C@H](C)[C@@H](CN(C)C(=O)C2CC2)Oc2ncc(-c3ccc(C(=O)N(C)C)cc3)cc2C1=O | inactive | inactive
C[C@@H]1CN([C@H](C)CO)C(=O)c2cccc(NC(=O)c3nc4ccccc4s3)c2O[C@H]1CN(C)Cc1ccc(C(F)(F)F)cc1 | active | inactive
C[C@@H]1CN([C@@H](C)CO)C(=O)c2cccc(NS(=O)(=O)c3cccs3)c2O[C@H]1CN(C)S(=O)(=O)c1ccc(F)cc1 | inactive | inactive
C[C@@H]1CN([C@@H](C)CO)C(=O)c2cc(NC(=O)Nc3ccccc3)ccc2O[C@@H](C)CCCCO[C@H]1CN(C)Cc1ccccc1 | inactive | inactive
C[N+](C)(C)CCCCNC(=O)[C@@H]1C[C@@H]2C(=O)N3CCC[C@H]3C(=O)N2[C@@H]1c1cccc(OCCO)c1 | inactive | inactive
Cc1noc(C)c1S(=O)(=O)Nc1ccc2c(c1)CC(=O)N([C@H](C)CO)C[C@@H](C)[C@@H](CN(C)S(=O)(=O)c1cccs1)O2 | inactive | inactive
C[C@@H]1CCCCO[C@H](CN(C)C(=O)C2CCCCC2)[C@H](C)CN([C@H](C)CO)C(=O)c2cc(NS(=O)(=O)c3ccc(F)cc3)ccc2O1 | inactive | inactive
C[C@@H]1CN([C@@H](C)CO)C(=O)c2cc(NC(=O)NC3CCCCC3)ccc2O[C@H]1CN(C)Cc1ccc(Oc2ccccc2)cc1 | active | inactive
COc1ccc(S(=O)(=O)N(C)C[C@@H]2Oc3cc(-c4ccccc4OC)ccc3S(=O)(=O)N([C@@H](C)CO)C[C@@H]2C)cc1 | inactive | inactive
COc1ccc(S(=O)(=O)Nc2ccc3c(c2)C(=O)N([C@H](C)CO)C[C@@H](C)[C@@H](CN(C)S(=O)(=O)c2cn(C)cn2)O3)cc1 | inactive | inactive
Cc1cc(C(=O)Nc2cccc3c2O[C@H](CN(C)Cc2ccc(C(=O)O)cc2)[C@H](C)CN([C@H](C)CO)C3=O)n(C)n1 | inactive | inactive
C[C@@H]1CCCCO[C@@H](CN(C)S(=O)(=O)c2ccccc2)[C@@H](C)CN([C@@H](C)CO)C(=O)c2cc(NC(=O)Nc3ccc4c(c3)OCO4)ccc2O1 | inactive | inactive
